From PubChem BioAssay AID1569 (National Center for Advancing Translational Sciences (NCATS), 2009)
This list was built around the results that the source calls inconclusive (neither active nor inactive); the mix of calls is not that of the screen. Potencies beside an inconclusive call are fits to weak or partial responses and may not hold up. Active and inactive are the calls of the source. Calls come from the whole dose curve; as a rule, active = well fitted inhibition curve with a large enough effect; inconclusive = small, poorly fitted or top-dose-only effect, or effect the other way, or another doubt; inactive = no such curve, though single readings can be large or run the other way.

Test: Confirmation Concentration-Response Assay for lipid storage modulators; note: nearly all actives have a fitted effect of over 80% in size
Conditions: Drosophila S3 cells, lipid droplet BODIPY/CellTracker ratio, 18-24 h; series mostly up to 46.1 µM
Method in brief: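 Cells at 5,000/well received compound as a titration plus oleic acid (added as 400 uM solution) and were incubated 18–24 h at 24 °C. BODIPY 493/503 lipid signal and CellTracker Red cell count were read by 488-nm laser-scanning cytometry. Activity was normalised to 20 uM Triacsin C.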
Potency is the fitted concentration of half-maximal effect; tags give direction and shape of the fitted curve.

Question: With `CCc1nc2oc3ccccc3c(=O)c2c(=O)n1Cc1ccccc1` as the molecule, how does the Potency read?
Answer: inconclusive: 4.45 µM [activator, full curve]

Question: With `CNC(=O)c1c(NC(=O)c2ccc3ncsc3c2)sc(C)c1C` as the molecule, how does the Potency read?
Answer: inconclusive: 0.996 µM [activator, full curve]

Question: With `Nc1cccc(-c2nc3cc(S(=O)(=O)c4ccc5oc(-c6cccc(N)c6)nc5c4)ccc3o2)c1` as the molecule, how does the Potency read?
Answer: active: 6.28 µM

Question: For `COc1ccc(-c2cc(C(F)(F)F)nc(SCC(=O)Nc3ccc4c(c3)OCO4)n2)cc1OC`, which Potency is on record?
Answer: inconclusive: 3.97 µM [activator, partial curve]

Question: For `O=C(CC(O)(C(F)(F)F)C(F)(F)F)Nc1ccc(Cl)c(Cl)c1`, which Potency is on record?
Answer: active: 9.96 µM

Question: For `CC(Oc1ccc2oc3ccccc3c2c1)C(=O)NC12CC3CC(CC(C3)C1)C2` (centres undefined), which Potency is on record?
Answer: active: 0.705 µM

Question: For `CCC(C)(C)NC(=O)C(c1cccn1C)N(Cc1ccc(OC)cc1)C(=O)Cn1nnc2ccccc21` (centres undefined), which Potency is on record?
Answer: active: 2.5 µM

Question: With `COc1ccc(/C=C(\NC(=O)c2cccs2)C(=O)Nc2ccccc2C)cc1OC` as the molecule, how does the Potency read?
Answer: active: 0.177 µM

Question: With `COC(=O)c1sccc1NC(=O)CSc1ccccc1NS(=O)(=O)c1ccccc1Cl` as the molecule, how does the Potency read?
Answer: inconclusive: 5.6 µM [activator, partial curve]
